Reference: PMC6919601, “Identification of Plasmodium dipeptidyl aminopeptidase allosteric inhibitors by high throughput screening” (PLoS ONE, 2019)
In all, about 110,000 compounds went through this assay and about 230 (0.21%) showed an effect of 50% or more. The list shows a part of the results.

The compounds below were run against DPAP1 (Plasmodium falciparum, UniProt Q8IIJ9) (assay: primary screen, percent inhibition; read by cleavage of a fluorogenic dipeptide substrate; higher = more effect of the substance).
Chain of DPAP1 (Q8IIJ9 whole entry, looked up): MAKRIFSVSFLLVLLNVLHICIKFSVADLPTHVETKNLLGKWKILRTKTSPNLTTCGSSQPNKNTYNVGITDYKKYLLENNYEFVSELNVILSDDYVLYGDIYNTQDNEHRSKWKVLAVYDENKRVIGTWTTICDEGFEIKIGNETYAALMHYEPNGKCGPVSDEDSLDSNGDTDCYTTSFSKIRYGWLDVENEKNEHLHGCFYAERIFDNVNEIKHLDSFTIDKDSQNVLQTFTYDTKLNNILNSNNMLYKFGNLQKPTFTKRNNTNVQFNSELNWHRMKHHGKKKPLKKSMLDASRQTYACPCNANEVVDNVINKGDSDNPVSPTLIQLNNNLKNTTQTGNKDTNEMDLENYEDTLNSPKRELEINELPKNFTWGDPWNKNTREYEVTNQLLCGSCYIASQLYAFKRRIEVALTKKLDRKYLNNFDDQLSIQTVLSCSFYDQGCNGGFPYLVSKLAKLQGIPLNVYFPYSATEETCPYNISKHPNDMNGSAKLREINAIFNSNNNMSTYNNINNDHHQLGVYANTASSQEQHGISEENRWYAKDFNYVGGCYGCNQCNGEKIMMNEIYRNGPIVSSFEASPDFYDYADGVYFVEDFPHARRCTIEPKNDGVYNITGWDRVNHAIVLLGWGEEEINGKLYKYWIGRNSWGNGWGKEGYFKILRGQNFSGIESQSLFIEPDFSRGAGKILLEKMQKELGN
Parameters: species or system P. falciparum D10 trophozoite lysates; single well
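Note: 30 min substrate incubation versus DMSO and 10 µM JCP410 controls.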

Row | SMILES | % Inhibition @ 10 uM
1 | COc1ccc(C)cc1-n1nnc(-c2nc(-c3ccccc3)no2)c1N | -4.46%
2 | O=C(Nc1ccccc1O)c1ccc(C(=O)Nc2ccccc2O)cc1 | 4.8%
3 | O=C(CN1CCN(c2ccccc2)CC1)Nc1cc(Cl)ccc1Cl | -2.03%
4 | O=c1c(Cl)c(N2CCC3(CC2)OCCO3)cnn1C12CC3CC(CC(C3)C1)C2 | -5.27%
5 | CC1=C(C)CC(C(=O)NCc2ccc3c(c2)OCO3)C(C(=O)O)C1 (stereo not drawn) | -3.46%
6 | O=C(C1CCC(CNS(=O)(=O)c2cccc3cccnc23)CC1)N1CCCCCC1 (stereo not drawn) | -0.692%
7 | COc1ccc(C)cc1N(CC(=O)N(C)Cc1ccccc1)S(=O)(=O)c1ccccc1 | 4.56%
8 | CC1=C(C(=O)Nc2ccc(F)cc2)C(c2ccco2)C(C#N)=C(SCC(N)=O)N1 (stereo not drawn) | -4.68%
9 | O=C1c2ccccc2C(=O)C1(Nc1cccc([N+](=O)[O-])c1)c1ccccc1 | 4.82%
10 | CCOc1ccc(C2Nc3ccccc3N=C3CC(C)(C)CC(O)=C32)cc1 (stereo not drawn) | -1.85%
11 | Cc1nn2c(N)c(C#N)cnc2c1-c1ccccc1 | 3.19%
12 | CC1CCc2nn(CC(=O)NCCCN(Cc3ccccc3)C(C)C)cc2C1 (stereo not drawn) | 1.8%
13 | CC(=O)c1ccc(NC(=O)c2cccc(Cl)c2)cc1 | -0.771%
14 | CCCCc1c(C(=O)O)cc(C)cc1C(=O)O | 3.16%
15 | Cc1cc2c(c(SCC(=O)O)n1)C(=O)OC2 | 2.57%
16 | Cc1ccc(S(=O)(=O)Cc2csc(N)n2)cc1 | 0.708%
17 | COc1ccc(NC(=O)CN2C(=O)S/C(=C/c3cc(C)n(-c4cccnc4)c3C)C2=O)cc1 | 17.9%
18 | O=C(O)CC(NC(=O)C(F)(F)F)c1ccccc1 (stereo not drawn) | -1.42%
19 | Cc1ccccc1Cn1cc(NC(=O)c2cc(-c3ccc4c(c3)OCO4)on2)cn1 | -1.84%
20 | Cc1cc(=O)oc2c(C)c(O)c(C(=O)c3ccccc3)cc12 | -4.62%
21 | CSc1cccc(NC(=O)CN(C)S(=O)(=O)c2c(C)cc(C)cc2C)c1 | 4.09%
22 | COc1ccc(CC(=O)Nc2cccc(F)c2)cc1 | -7.5%
23 | Cc1cccc2nc(Cl)cc(Cl)c12 | -2.4%
24 | Cc1nc(-c2ccc(NS(=O)(=O)c3ccc(C)c(C)c3)cc2)cs1 | -4.68%
25 | O=C(COCc1cc(-c2cccs2)on1)Nc1c2ccccc2nc2ccccc12 | -4.38%
26 | CCc1cc(C)nc2cc(-c3ccccc3)nn12 | 0.727%

Row | SMILES | % Inhibition @ 10 uM
27 | COc1ccc(-n2cccc2/C=C2\SC(=O)N(CC(=O)O)C2=O)cc1 | 5.75%
28 | Cc1ccccc1OCC(=O)NCCC1=CCCCC1 | -4.02%
29 | CCOc1ccc(C(=O)C2=C(O)C(=O)N(Cc3cccnc3)C2c2ccc(O)c(OC)c2)cc1 (stereo not drawn) | -1.25%
30 | CC(C)(C)c1ccc(Oc2nc3ccccn3c(=O)c2/C=C(\C#N)C(=O)NC2CCCCC2)cc1 | 2.16%
31 | OC(/C=C/c1cccc(C(F)(F)F)c1)(Cn1ccnc1)c1cccnc1 (stereo not drawn) | 3.54%
32 | O=C(Nc1ccccc1C(F)(F)F)NC1CCCCC1 | 24.3%
33 | CC(C)NC1=N/C(=C\c2ccccc2)C(=O)N1c1cccc(Cl)c1 | 0.231%
34 | CC(C)CCCNC=C1C(=O)NC(=O)NC1=O | 12.8%
35 | CC(O)CN(CC(C)O)CC1CCCCC1 (stereo not drawn) | 1.88%
36 | O=S(=O)(Nc1nc2c(s1)CCCC2)c1cc(Cl)ccc1Cl | -3.49%
37 | O=C(Cn1cc(SCc2ccccc2Cl)c2ccccc21)N1CCCC1 | 0.0147%
38 | Cc1ccccc1C(=O)N(Cc1ccccc1F)C1CCS(=O)(=O)C1 (stereo not drawn) | -1.35%
39 | N#Cc1c(N)n(-c2ccccc2O)c2nc3cc([N+](=O)[O-])c([N+](=O)[O-])cc3nc12 | -0.0372%
40 | O=C1C2CCCN2C(c2cccc(Br)c2)N1c1nccs1 (stereo not drawn) | -4.14%
41 | Cc1cc(C)c2c(-n3cccc3)c(C(=O)NCCCN3CCOCC3)sc2n1 | -2.85%
42 | O=C(c1ccc(C(F)(F)F)cc1)N1CCN(c2ccccc2)CC1 | -6.65%
43 | C#CCCCNc1nc(Cl)cn(-c2ccccc2)c1=O | 3.05%
44 | CCn1c(-c2ccccc2)nc2ncccc2c1=O | -0.553%
45 | CN(C(=O)Cc1ccccc1)N(C)C(=O)Cc1ccccc1 | 2.38%
46 | COc1cc2ncn(C)c2cc1OC | -2.36%
47 | COc1ccc(CC(=O)Nc2ccccc2C(=O)NC2CCCCC2)cc1 | -5.34%
48 | CCOc1ccc(C(=O)Nc2cccc(Cl)c2)cc1Cl | -1.63%
49 | Cc1ccc(C2C(C(=O)O)c3ccccc3C(=O)N2C)o1 (stereo not drawn) | 1.08%
50 | COc1cc(-c2nnc(SCC(=O)N3CCCC3)o2)cc(OC)c1OC | 28%
51 | Fc1ccc(Nc2nc(-c3ccc(Br)cc3)cs2)cc1 | -0.771%
52 | Cc1cc(-c2ccc(C)o2)c(C#N)c(SCC(=O)c2ccccc2)n1 | -6.11%

Row | SMILES | % Inhibition @ 10 uM
53 | Cc1ccc(-c2c(N3CCCCC3C)c(=O)c2=O)cc1C (stereo not drawn) | -2.87%
54 | CCOC(=O)N1CCC(N2C(=O)c3cc(C(=O)NC4CCCCC4)ccc3C2O)CC1 (stereo not drawn) | 0.809%
55 | CCOC(=O)N1CCC(NC(=O)CCc2nc(C3=CCN(C)CC3)no2)CC1 | 0.655%
56 | CCCCN(C)C(=O)Cn1cc(S(=O)(=O)NC)c(S(=O)(=O)NC)c1 | 0.186%
57 | CC(=O)c1ccc(N2CCN(C3CCN(C)CC3)CC2)cc1 | 3.18%
58 | O=C(c1ccccc1)N1CCCC2CCC(O)CC21 (stereo not drawn) | -1.91%
59 | COc1cc(C(=O)NCCCc2nc3ccccc3n2Cc2ccccc2F)cc(OC)c1OC | 5.4%
60 | COC(=O)C1=CN(CC2CCCO2)C=C(C(=O)OC)C1c1ccccc1C(F)(F)F (stereo not drawn) | -1.47%
61 | Cc1ccc2c(c1)-c1onc(C(=O)NC(C)CCc3ccco3)c1CO2 (stereo not drawn) | -1.4%
62 | Nc1c(Cl)c(Cl)c(N)c2nccnc12 | -1.29%
63 | N#Cc1ccccc1Cn1c(=O)n(Cc2ccccn2)c(=O)c2sc3ccccc3c21 | 2.04%
64 | COc1ccc2ccccc2c1/C=C1\C=C(c2ccc(C)cc2)OC1=O | 3.72%
65 | COC(=O)c1sccc1S(=O)(=O)N1CCN(c2ncccn2)CC1 | -4.94%
66 | CN(C)C1=C2CCN(Cc3ccccc3)C2C(C#N)C(=O)N1 (stereo not drawn) | 3.47%
67 | CCc1ccc(N2C(=O)C(Cl)=C(Nc3ccc(OC)cc3)C2=O)cc1 | -2.88%
68 | O=C(NC1CCCCCCC1)C(NS(=O)(=O)c1cccc2nsnc12)c1ccccc1 (stereo not drawn) | 2%
69 | CO/C(O)=C1/C(C)=NC2=C(C(=O)CCC2)C1c1ccc(SC)cc1 (stereo not drawn) | -2.48%
70 | COC(=O)c1ccc(/C=C2/C=C(c3ccc(OC)cc3)OC2=O)cc1 | -5.62%
71 | COc1cccc(CN2CC(C)OC(C)C2)c1 (stereo not drawn) | 5.03%
72 | CCOC(=O)N1CCN(c2nc(-c3ccccc3F)nc3ccccc23)CC1 | 3.45%
73 | Cc1ccc(C(=O)Nc2nnc(S(=O)(=O)N3CCC(C)CC3)s2)cc1 | 1.68%
74 | CCN(C(=O)c1ccccc1Br)c1nc(-c2ccccc2)cs1 | -6.6%
75 | CCSc1c(C(=O)NCc2ccccc2)ccc2c1C(=O)c1ccccc1C2=O | -3.04%
76 | COc1cc(C2c3c(-c4cc(C)ccc4O)n[nH]c3C(=O)N2CCO)cc(OC)c1OC (stereo not drawn) | 5.35%
77 | COc1ccc(C2CC(=O)c3cnc(NC(=O)c4ccccc4)nc3C2)cc1 (stereo not drawn) | 11.6%
78 | COC1=C(Cc2ccccc2)C(=O)OC2C=CC=CC12 (stereo not drawn) | -0.711%

Row | SMILES | % Inhibition @ 10 uM
79 | Cc1ccccc1C(=O)N(Cc1ccc(Cl)cc1)Cc1ccco1 | -0.666%
80 | O=S1(=O)C(/C=N/C2CCCCCC2)=C(O)c2sccc2N1Cc1ccccc1 | -2.16%
81 | CCc1nnc(NC(=O)CCNS(=O)(=O)c2cc(Br)cnc2N)s1 | -4.69%
82 | O=C1CC(NC23CC4CC(CC(C4)C2)C3)C(=O)N1c1ccccc1Cl (stereo not drawn) | -6.24%
83 | CC(C)Oc1ccc(C(=O)NCc2cccnc2)cc1 | -0.473%
84 | Cc1nc2sc3c(N)ncnc3c2c(C)c1C | 0.392%
85 | CC(C)(C)c1cc(S(N)(=O)=O)cc(C(C)(C)C)c1F | -1.42%
86 | Cc1cccc(NC(=O)c2ccc(S(=O)(=O)N3CCCCC3C)cc2)c1C (stereo not drawn) | -7.62%
87 | Cc1cc(Cl)ccc1NC1=NS(=O)(=O)c2ccccc21 | 2.7%
88 | COc1cc(C(=O)N2CCN(C(=O)COc3ccc(C)cc3)CC2)cc(OC)c1OC | 9.1%
89 | O=C(NCc1ccc2c(c1)OCO2)c1cc2c(=O)oc3ccccc3c2s1 | 4.33%
90 | COC(=O)c1c(NC(=O)CCCOc2ccc(C(C)(C)C)cc2)sc2c1CCC2 | 0.487%
91 | COc1ccccc1/C=C/C=c1\sc2nc(-c3cccc(C)c3)nn2c1=O | -2.98%
92 | Cc1[nH]c(-c2ccc(F)cc2)cc1C(=O)NCc1ccc2c(c1)OCO2 | -1.26%
93 | CCOC(=O)c1c(N)sc2c1CCC2 | 11.6%
94 | CC(=O)c1c(C)n(Cc2ccccc2)c2ccc(O)cc12 | -1.37%
95 | COC(=O)c1cc(S(=O)(=O)NC(C)c2ccccc2)cn1C (stereo not drawn) | -8.56%
96 | O=C1N/C(=C/c2ccc(Br)cc2)C(O)=C1/C=N/Cc1ccccc1 | 0.317%
97 | Cc1cc(C(F)(F)F)nn1C(=O)c1cccnc1Cl | -2.9%
98 | CCOC(=O)C1=C(CS(=O)(=O)c2ccc(F)cc2)NC(=O)NC1c1ccc(O)c(O)c1 (stereo not drawn) | -2.16%
99 | CC(C)c1ccc(NC(=O)CC2SC(N)=NC2=O)cc1 (stereo not drawn) | -3.1%
100 | C=CCOc1ccc(/C=c2\sc3nc(-c4ccc(F)cc4)nn3c2=O)cc1 | 2.24%
101 | CCCCCP(=O)(O)c1ccccc1 | 2.76%
102 | COc1cc(CN2CCN(c3ccccc3C)CC2)cc(Br)c1O | -6.47%
